Data: PubChem BioAssay AID504332 (National Center for Advancing Translational Sciences (NCATS), 2011)
In all, about 350,000 compounds went through this assay and about 31,000 (8.9%) were called active. The shares of active, inactive and inconclusive entries below differ from those in the screen. Calls come from the whole dose curve; as a rule, active = well fitted inhibition curve with a large enough effect; inconclusive = small, poorly fitted or top-dose-only effect; inactive = no such curve, though single readings can be large or run the other way. A potency beside an inconclusive call is a rough fit, not a confirmed value.

What follows are compounds tested against Histone-lysine N-methyltransferase EHMT2 (Homo sapiens) (UniProt Q96KQ7) (assay: qHTS Assay for Inhibitors of Histone Lysine Methyltransferase G9a). Details: G9a H3K9 monomethylation, AlphaScreen, 2 h; activity, negative = inhibition: at 59 µM (top of the series) unless noted.
Chain of UniProt Q96KQ7 (Q96KQ7 whole entry, looked up): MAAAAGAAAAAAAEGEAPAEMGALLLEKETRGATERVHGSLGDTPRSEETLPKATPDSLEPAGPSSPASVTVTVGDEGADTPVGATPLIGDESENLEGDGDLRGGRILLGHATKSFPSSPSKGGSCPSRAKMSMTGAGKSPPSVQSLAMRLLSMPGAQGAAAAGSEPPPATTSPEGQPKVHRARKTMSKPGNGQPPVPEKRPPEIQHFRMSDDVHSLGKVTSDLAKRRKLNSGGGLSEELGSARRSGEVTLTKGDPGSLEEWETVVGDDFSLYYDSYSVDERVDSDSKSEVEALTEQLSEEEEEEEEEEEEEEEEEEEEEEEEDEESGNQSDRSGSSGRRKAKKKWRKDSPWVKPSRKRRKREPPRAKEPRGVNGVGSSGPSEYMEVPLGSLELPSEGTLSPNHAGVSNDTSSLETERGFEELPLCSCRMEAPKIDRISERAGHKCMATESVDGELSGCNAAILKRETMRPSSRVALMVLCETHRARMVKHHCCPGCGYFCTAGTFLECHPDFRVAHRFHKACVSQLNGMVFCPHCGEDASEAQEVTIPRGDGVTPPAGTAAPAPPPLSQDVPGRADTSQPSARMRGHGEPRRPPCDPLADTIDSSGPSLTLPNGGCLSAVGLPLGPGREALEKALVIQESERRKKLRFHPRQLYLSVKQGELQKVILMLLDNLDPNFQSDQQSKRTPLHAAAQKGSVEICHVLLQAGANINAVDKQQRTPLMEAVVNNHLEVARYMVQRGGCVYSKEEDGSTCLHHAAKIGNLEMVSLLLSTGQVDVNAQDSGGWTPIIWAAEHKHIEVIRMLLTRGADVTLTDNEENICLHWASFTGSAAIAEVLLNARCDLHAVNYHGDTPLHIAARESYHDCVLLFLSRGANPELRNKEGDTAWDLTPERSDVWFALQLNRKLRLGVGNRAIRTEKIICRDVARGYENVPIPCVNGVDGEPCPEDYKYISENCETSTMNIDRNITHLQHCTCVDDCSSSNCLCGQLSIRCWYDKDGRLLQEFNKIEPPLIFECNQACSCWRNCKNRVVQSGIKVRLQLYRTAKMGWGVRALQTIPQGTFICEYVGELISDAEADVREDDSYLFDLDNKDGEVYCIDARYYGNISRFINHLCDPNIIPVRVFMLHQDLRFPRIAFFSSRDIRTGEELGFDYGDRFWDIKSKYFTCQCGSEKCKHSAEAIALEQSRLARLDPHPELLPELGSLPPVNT
Summary of the method: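 Methyltransferase reactions run at room temperature for 2 h (20 nM enzyme, 500 nM biotin-H3K9 peptide, 20 uM SAM) after a 15 min compound preincubation; product detected by AlphaScreen beads and anti-H3K9me1 antibody.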
% is set by controls: 0 for no effect and ±100 for the full control effect; potency is the fitted concentration of half-maximal effect; tags give direction and shape of the fitted curve.
Note: nearly all actives have a fitted effect of over 75% in size.

| Compound | Potency | activity, negative = inhibition |
| --- | --- | --- |
| CCc1ccccc1NC(=O)C(CCSC)NS(=O)(=O)c1ccc2c(c1)oc(=O)n2C (stereo not given) | inactive | – |
| Cc1ccc(-c2nc(NCCN(C)C)c3ccccc3n2)cc1 | inactive | – |
| N#Cc1c(-c2ccccc2)cc(-c2ccccc2)nc1SCC(=O)Nc1ccc(Cl)cc1 | inconclusive: 14.1 µM [inhibitor, partial curve, poor fit] | – |
| Cc1ccccc1-c1nn2c(=O)cc(CN3CCN(C(=O)c4ccccc4Br)CC3)nc2s1 | inactive | – |
| Cc1ccccc1CN(C)C(=O)c1ccc2ccccc2n1 | inactive | – |
| COc1cc(/C=C2\C(=N)N3N=C(C)SC3=NC2=O)cc(Cl)c1OCCOc1ccc(NC(C)=O)cc1 | inactive | – |
| Cc1cc(CSc2ccccc2)ccc1NC(=O)c1ccc(Cl)c([N+](=O)[O-])c1 | inconclusive: 56.2 µM [inhibitor, partial curve, poor fit] | – |
| COc1ccc(NC(=O)c2oc3ccccc3c2NC(=O)c2cc(OC)c(OC)c(OC)c2)cc1 | inconclusive: 39.8 µM [inhibitor, single point] | – |
| COc1ccc2oc(C(=O)OCC(=O)Nc3cc(S(=O)(=O)N4CCOCC4)ccc3C)c(C)c2c1 | – | inconclusive: -82.5% [inhibitor] [at 2.33 µM] |
| CC(=O)[C@@H]1[C@@H]2C(=O)N(Cc3ccccc3)C(=O)[C@@H]2C2c3ccccc3C=CN21 (stereo not given in full) | active: 2.82 µM | – |
| COc1ccc(C2=C(N3CCN(c4cc(Cl)ccc4C)CC3)c3ccccc3C2=O)cc1 | active: 3.55 µM | – |
| CC(=O)Nc1ccc(S(=O)(=O)NCCSc2ccccn2)cc1 | active: 2.51 µM | – |
| COc1cc(CNC(C)c2ccccc2)cc(Cl)c1OCC(=O)Nc1ccccc1 (stereo not given) | inconclusive: 50.1 µM [inhibitor, partial curve, poor fit] | – |
| O=C(c1ccco1)N1CCN(C(=O)c2cnn(-c3ccc(Cl)cc3)c2C2CCNCC2)CC1 | active: 70.8 µM | – |
| O=C1CN(C(=O)COc2ncnc3ccccc23)c2ccccc2N1 | inconclusive: 10 µM [inhibitor, full curve, poor fit] | – |
| O=S1(=O)CCC(N=Cc2cc(Br)ccc2O)C1 (stereo not given) | – | inactive: 8.67% [at 12.7 µM] |
| Nc1nonc1C(=O)NCCNCc1cc(Br)ccc1OCc1ccccc1F | – | inconclusive: -62.5% [inhibitor] |
| COc1cccc([C@H]2Nc3ccc(S(=O)(=O)Nc4cc(C)ccc4C)cc3[C@H]3C=CC[C@H]32)c1 | active: 12.6 µM | – |
| COc1ccc(NC(=O)CSc2nnc(Cc3cccn3C)n2-c2ccc(F)cc2)cc1OC | inconclusive: 39.8 µM [inhibitor, single point] | – |
| CC(C)CC(NC(=O)C(COC(C)(C)C)NC(=O)C(Cc1ccc(O)cc1)NC(=O)C(CO)NC(=O)C(Cc1c[nH]c2ccccc12)NC(=O)C(Cc1cnc[nH]1)NC(=O)C1CCC(=O)N1)C(=O)NC(CCCN=C(N)N)C(=O)N1CCCC1C(=O)NNC(N)=O (stereo not given) | – | inactive: -30.6% [at 12.7 µM] |
| Oc1c(C(c2ccc(Cl)cc2)N2CCOCC2)sc2nc(-c3ccco3)nn12 (stereo not given) | inconclusive: 39.8 µM [inhibitor, single point] | – |
| CCOC(=O)CNC(=O)CCc1nnc2ccc(N3CCC(C)CC3)nn12 | inactive | – |
| O=C(/C(=C/O)N=Nc1ccccc1Cl)c1ccccc1 | active: 39.8 µM | – |
| COc1cccc2cc(C(=O)NC(C)C3CCCO3)c(=O)oc12 (stereo not given) | inconclusive: 22.4 µM [inhibitor, single point] | – |

| Compound | Potency | activity, negative = inhibition |
| --- | --- | --- |
| C[C@H](NC[C@H](O)CP(=O)(O)Cc1ccccc1)c1ccc(Cl)c(Cl)c1 | inactive | – |
| COc1ccccc1NC(=O)C1C2C=CC(O2)C1C(=O)O (stereo not given) | active: 50.1 µM | – |
| CCn1c(COc2ccccc2C)nnc1SCC(=O)N1CCN(c2ccccc2)CC1 | – | inactive: 9.53% [at 12.7 µM] |
| Cn1c2c(c(=O)n(C)c1=O)C(NC(=O)c1ccco1)(C(F)(F)F)C(=O)N2 (stereo not given) | inconclusive: 89.1 µM [inhibitor, single point] | – |
| O=C(NC(=S)NCc1cccnc1)c1cc(Br)ccc1Cl | – | inactive: 24.4% [at 12.7 µM] |
| Cc1cc(C)cc(NC2=C(N)C(=O)c3ccccc3C2=O)c1 | active: 1.58 µM | – |
| Cc1ccc(C2=NN(C(=O)COc3ncnc4ccccc34)C(c3ccco3)C2)cc1 (stereo not given) | inactive | – |
| CCOc1ccc(Br)cc1CNCCN1CCOCC1 | inconclusive: 44.7 µM [inhibitor, single point] | – |
| Cc1cccc(N(CC(=O)N2CCCC2)S(C)(=O)=O)c1 | – | inactive: 0% [at 0.501 µM] |
| COc1ccc2c(C)c(C(=O)N3CCN(Cc4ccccc4)CC3)oc2c1 | inconclusive: 70.8 µM [inhibitor, partial curve] | – |
| O=C(Cn1ncc2c1-c1ccccc1OC2)Nc1nc2ccccc2s1 | inconclusive: 89.1 µM [inhibitor, single point] | – |
| COCCn1c(=S)[nH]c2cc(C(=O)NCC3CCCO3)ccc2c1=O (stereo not given) | – | inconclusive: -125% [inhibitor] |
| CCOC(=O)N1CCN(C2=C(NS(=O)(=O)c3ccccc3)C(=O)c3ccccc3C2=O)CC1 | active: 35.5 µM | – |
| COc1ccc(NC(=O)CSc2ccc([N+](=O)[O-])cc2)cc1S(=O)(=O)N1CCOCC1 | inconclusive: 25.1 µM [inhibitor, single point] | – |
| COc1cc2nc(N(CCCN(C)C)C(=O)c3ccc(S(=O)(=O)N4CCc5ccccc5C4)cc3)sc2cc1OC | active: 39.8 µM | – |
| Cc1ccc(NC(=O)c2cc3cccc([N+](=O)[O-])c3[nH]2)cc1 | inconclusive: 15.8 µM [inhibitor, partial curve, poor fit] | – |
| N#CCCN(Cc1cccnc1)C(=S)NC(=O)c1ccco1 | active: 10 µM | – |
| O=S(=O)(c1ccccc1)N1CCC2(CC1)OCCN2S(=O)(=O)c1cccs1 | inconclusive: 70.8 µM [inhibitor, single point] | – |
| Cc1nc(SCC(=O)c2ccc(F)cc2)n[nH]1 | active: 2.51 µM | – |
| CC(C)N1CCNCC1 | inconclusive: 79.4 µM [inhibitor, partial curve, poor fit] | – |
| COc1ccccc1C(=O)NC(=S)Nc1ccc(Cc2ccncc2)cc1 | active: 31.6 µM | – |
| Cc1nc(SCC(=O)NC2CCS(=O)(=O)C2)c2c3c(sc2n1)CCCC3 (stereo not given) | active: 50.1 µM | – |
| O=C(NC(=S)NC1CCSC1=O)c1cccs1 (stereo not given) | inconclusive: 8.91 µM [inhibitor, partial curve, poor fit] | – |
| COc1ccc(N2CCN(C(=O)c3nn(C)c4c3CSc3ccccc3-4)CC2)cc1 | inactive | – |

| Compound | Potency | activity, negative = inhibition |
| --- | --- | --- |
| CN(CC(=O)Nc1ccc(SC(F)F)cc1)C1CCCCC1 | active: 79.4 µM | – |
| Cc1ccccc1-c1nc(CS(=O)(=O)CC(=O)NCCCN2CCCC2)c(C)o1 | inconclusive: 79.4 µM [inhibitor, single point] | – |
| CCCCN(C(=O)CSc1nnc(-c2ccc(OC)cc2)n1CC)c1c(N)n(Cc2ccccc2)c(=O)[nH]c1=O | inactive | – |
| CC(=O)c1cccc(NC(=O)c2ccc(-c3ccccc3[N+](=O)[O-])o2)c1 | inconclusive: 11.2 µM [inhibitor, partial curve] | – |
| CCC(C)COC(c1ccccc1)(c1ccccc1)C(Oc1nc(C)cc(C)n1)C(=O)O (stereo not given) | inconclusive: 39.8 µM [inhibitor, partial curve, poor fit] | – |
| Cn1cc(SCC(=O)Nc2nc3ccccc3s2)c2ccccc21 | inconclusive: 22.4 µM [inhibitor, single point] | – |
| COC(=O)c1ccc(C2/C(=C(/O)c3ccc4c(c3)CC(C)O4)C(=O)C(=O)N2CCN2CCOCC2)cc1 (stereo not given) | active: 50.1 µM | – |
| CCCCCCCCS(=O)c1sc2nc(C)cc(C)c2c1N (stereo not given) | inconclusive: 3.55 µM [inhibitor, single point] | – |
| O=C1NC(=O)c2cc(Nc3ccc(F)cc3)c(Nc3ccc(F)cc3)cc21 | active: 14.1 µM | – |
| Cc1ccc(Nc2nc(-c3sc(NC(=O)c4cccc(Cl)c4)nc3C)cs2)cc1 | active: 25.1 µM | – |
| Cc1c(S(=O)(=O)c2ccccn2)c(N)n(Cc2cccc(Cl)c2)c1C | active: 28.2 µM | – |
| CC1CC(C)CN(CCOc2ccc(Cl)cc2Cl)C1 (stereo not given) | inconclusive: 0.891 µM [inhibitor, single point] | – |
| CC(c1ccc(F)cc1)n1c(-c2ccc3ccccc3n2)n[nH]c1=S (stereo not given) | – | inactive: -3.32% [at 0.501 µM] |
| O=C(Cn1c(SCCOc2ccccc2Cl)nc2ccccc21)N1CCCCC1 | inconclusive: 28.2 µM [inhibitor, partial curve, poor fit] | – |
| O=C1CCCCCCC1Sc1ccccc1[N+](=O)[O-] (stereo not given) | active: 11.2 µM | – |
| CN(C)C(=O)N1CCCC(C(=O)NCc2ccc(F)cc2Cl)C1 (stereo not given) | inconclusive: 35.5 µM [inhibitor, single point] | – |
| COc1cc(/C=C(\C#N)c2nc3ccccc3[nH]2)c([N+](=O)[O-])cc1OCc1ccccc1 | inactive | – |
| COC(=O)C1OC(=O)C2O[C@@]23[C@]2(C)C(OC(C)=O)CC4C(C)(C)C(=O)CC[C@]4(C)C2CC[C@@]13C (stereo not given in full) | – | inactive: -40.8% [at 2.33 µM] |
| N#Cc1c(SCC(=O)O)nc(N2CCOCC2)c2c1CCCC2 | inconclusive: 50.1 µM [inhibitor, partial curve] | – |
| CCOC(=O)c1ccccc1NC(=O)c1sc2ncn(CC)c(=O)c2c1C | inconclusive: 35.5 µM [inhibitor, single point] | – |
| CCOC(=O)c1ccc(-n2c(N)c(C(=O)NCc3ccco3)sc2=S)cc1 | inconclusive: 3.16 µM [inhibitor, partial curve, poor fit] | – |
| COc1ccc(C(=O)COc2ccc(C)cc2NC(C)=O)cc1 | inactive | – |
